# The list shows a part of the results.
# B1: Epa12 (Candida glabrata) (protein)
# chain: MGSSHHHHHHSSGLVPRGSHMLEPDNSLQIFDSFLSNPSKYPLGCSPKITNPKKGLSMELYSYPYRKKGSHPCWDPAYLDPNFPRVGYKKNKLIARVDGVSGDINFNFHPKRQCTPIADYLPPNFNYNEPITTTNFTMLLYGYFKPKVTGLHTFDISADDLLFMNFGAGNAFDCCRRDSTADTFGNYVAWAIWGRRIVRNKLTVRLDKGIYYPLRLFFNNRDYYGQMRLTFKTEHGSERITDFSDYFFSVDDTSEGCPGLITYESECADVKSSTVLETDYITIQAEKE
# Tests used:
# Assay in all cases: glycan array binding signal (z-score within array); higher = stronger binding
# Conditions in all cases: glycan notation: IUPAC condensed, linker removed
# [1] = biological target: Gal(b1-4)GlcNAc(b1-3)Gal(b1-4)GlcNAc(b1-3)Gal(b1-4)GlcNAc(b1-3)Gal(b1-4)GlcNAc(b1-3)Gal(b1-4)GlcNAc(b1-2)Man(a1-3)[Gal(b1-4)GlcNAc(b1-3)Gal(b1-4)GlcNAc(b1-3)Gal(b1-4)GlcNAc(b1-3)Gal(b1-4)GlcNAc(b1-3)Gal(b1-4)GlcNAc(b1-2)Man(a1-6)]Man(b1-4)GlcNAc(b1-4)GlcNAc
# Method in brief: (§1)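 From the Consortium for Functional Glycomics database, 3228 arrays were curated, keeping only those whose protein sequence was available. Binding is given as a within-array Z-score averaged across arrays sharing a protein sequence and across linkers. Negative Z-scores can be read as non-binding.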
# [2] = biological target: Gal(b1-4)GlcNAc(b1-3)Gal(b1-4)GlcNAc(b1-3)Gal(b1-4)GlcNAc(b1-3)Gal(b1-4)GlcNAc(b1-3)Gal(b1-4)GlcNAc(b1-2)Man(a1-3)[Gal(b1-4)GlcNAc(b1-3)Gal(b1-4)GlcNAc(b1-3)Gal(b1-4)GlcNAc(b1-3)Gal(b1-4)GlcNAc(b1-3)Gal(b1-4)GlcNAc(b1-2)Man(a1-6)]Man(b1-4)GlcNAc(b1-4)[Fuc(a1-6)]GlcNAc
# Method in brief: as §1
# [3] = biological target: Gal(b1-4)GlcNAc(b1-3)Gal(b1-4)GlcNAc(b1-3)Gal(b1-4)GlcNAc(b1-3)Gal(b1-4)GlcNAc(b1-3)Gal(b1-4)GlcNAc(b1-2)[Gal(b1-4)GlcNAc(b1-3)Gal(b1-4)GlcNAc(b1-3)Gal(b1-4)GlcNAc(b1-3)Gal(b1-4)GlcNAc(b1-3)Gal(b1-4)GlcNAc(b1-6)]Man(a1-6)[Gal(b1-4)GlcNAc(b1-3)Gal(b1-4)GlcNAc(b1-3)Gal(b1-4)GlcNAc(b1-3)Gal(b1-4)GlcNAc(b1-3)Gal(b1-4)GlcNAc(b1-2)Man(a1-3)]Man(b1-4)GlcNAc(b1-4)[Fuc(a1-6)]GlcNAc
# Method in brief: as §1
# [4] = biological target: Gal(b1-4)GlcNAc(b1-3)Gal(b1-4)GlcNAc(b1-3)Gal(b1-4)GlcNAc(b1-3)Gal(b1-4)GlcNAc(b1-3)Gal(b1-4)GlcNAc(b1-3)Gal(b1-4)GlcNAc(b1-2)Man(a1-3)[Gal(b1-4)GlcNAc(b1-3)Gal(b1-4)GlcNAc(b1-3)Gal(b1-4)GlcNAc(b1-3)Gal(b1-4)GlcNAc(b1-3)Gal(b1-4)GlcNAc(b1-3)Gal(b1-4)GlcNAc(b1-2)Man(a1-6)]Man(b1-4)GlcNAc(b1-4)GlcNAc
# Method in brief: as §1
# [5] = biological target: Gal(b1-4)GlcNAc(b1-3)Gal(b1-4)GlcNAc(b1-3)GalNAc
# Method in brief: as §1
# [6] = biological target: Gal(b1-4)GlcNAc(b1-3)Gal(b1-4)GlcNAc(b1-3)[Gal(b1-4)GlcNAc(b1-3)Gal(b1-4)GlcNAc(b1-6)]GalNAc
# Method in brief: as §1
# [7] = biological target: Gal(b1-4)GlcNAc(b1-3)Gal(b1-4)GlcNAc(b1-6)[Gal(b1-3)]GalNAc
# Method in brief: as §1
# [8] = biological target: Gal(b1-4)GlcNAc(b1-3)Gal(b1-4)[Fuc(a1-3)]GlcNAc(b1-3)Gal(b1-4)[Fuc(a1-3)]GlcNAc
# Method in brief: as §1
# [9] = biological target: Gal(b1-4)GlcNAc(b1-3)GalNAc
# Method in brief: as §1
# [10] = biological target: Gal(b1-4)GlcNAc(b1-3)[Fuc(a1-3)GlcNAc(b1-6)]Gal(b1-4)Glc
# Method in brief: as §1
# [11] = biological target: Gal(b1-4)GlcNAc(b1-3)[Gal(b1-4)GlcNAc(b1-6)]Gal(b1-4)GlcNAc
# Method in brief: as §1
# [12] = biological target: Gal(b1-4)GlcNAc(b1-3)[Gal(b1-4)GlcNAc(b1-6)]GalNAc
# Method in brief: as §1
# [13] = biological target: Gal(b1-4)GlcNAc(b1-3)[GlcNAc(b1-6)]Gal(b1-4)GlcNAc
# Method in brief: as §1
# [14] = biological target: Gal(b1-4)GlcNAc(b1-6)Gal(b1-4)GlcNAc
# Method in brief: as §1
# [15] = biological target: Gal(b1-4)GlcNAc(b1-6)GalNAc
# Method in brief: as §1
# [16] = biological target: Gal(b1-4)GlcNAc(b1-6)[Gal(b1-3)]GalNAc
# Method in brief: as §1
# [17] = biological target: Gal(b1-4)GlcNAc(b1-6)[Gal(b1-3)]GlcNAc
# Method in brief: as §1
# [18] = biological target: Gal(b1-4)GlcNAc(b1-6)[Gal(b1-4)GlcNAc(b1-3)]GalNAc
# Method in brief: as §1
# Gal(b1-4)GlcNAc6P = biological target: Gal(b1-4)GlcNAc6P
# Method in brief: as §1
# Gal(b1-6)Gal = biological target: Gal(b1-6)Gal
# Method in brief: as §1
# Gal3S(b1-3)GalNAc = biological target: Gal3S(b1-3)GalNAc
# Method in brief: as §1
# Gal3S(b1-3)GlcNAc = biological target: Gal3S(b1-3)GlcNAc
# Method in brief: as §1
# [19] = biological target: Gal3S(b1-3)[Fuc(a1-4)]GlcNAc
# Method in brief: as §1
# Gal3S(b1-4)Glc = biological target: Gal3S(b1-4)Glc
# Method in brief: as §1
# Gal3S(b1-4)Glc6S = biological target: Gal3S(b1-4)Glc6S
# Method in brief: as §1
# Gal3S(b1-4)GlcNAc = biological target: Gal3S(b1-4)GlcNAc
# Method in brief: as §1
# Gal3S(b1-4)GlcNAc6S = biological target: Gal3S(b1-4)GlcNAc6S
# Method in brief: as §1
# [20] = biological target: Gal3S(b1-4)[Fuc(a1-3)]Glc6S
# Method in brief: as §1
# [21] = biological target: Gal3S(b1-4)[Fuc(a1-3)]GlcNAc
# Method in brief: as §1
# [22] = biological target: Gal3S(b1-4)[Fuc(a1-3)]GlcNAc6S
# Method in brief: as §1
# Gal3S4S(b1-4)GlcNAc = biological target: Gal3S4S(b1-4)GlcNAc
# Method in brief: as §1
# Gal3S6S(b1-4)GlcNAc = biological target: Gal3S6S(b1-4)GlcNAc
# Method in brief: as §1
# Gal3S6S(b1-4)GlcNAc6S = biological target: Gal3S6S(b1-4)GlcNAc6S
# Method in brief: as §1
# Gal4S(b1-4)GlcNAc = biological target: Gal4S(b1-4)GlcNAc
# Method in brief: as §1
# Gal4S6S(b1-4)GlcNAc = biological target: Gal4S6S(b1-4)GlcNAc
# Method in brief: as §1
# Gal6P(b1-4)GlcNAc = biological target: Gal6P(b1-4)GlcNAc
# Method in brief: as §1
# Gal6S(b1-3)GlcNAc = biological target: Gal6S(b1-3)GlcNAc
# Method in brief: as §1
binder,measurement,setting,value
B1,glycan array binding signal (z-score),[1],-0.444
same,glycan array binding signal (z-score),[2],-0.323
same,glycan array binding signal (z-score),[3],-0.084
same,glycan array binding signal (z-score),[4],-0.145
same,glycan array binding signal (z-score),[5],0.034
same,glycan array binding signal (z-score),[6],-0.105
same,glycan array binding signal (z-score),[7],-0.065
same,glycan array binding signal (z-score),[8],0.066
same,glycan array binding signal (z-score),[9],-0.142
same,glycan array binding signal (z-score),[10],-0.079
same,glycan array binding signal (z-score),[11],-0.194
same,glycan array binding signal (z-score),[12],-0.184
same,glycan array binding signal (z-score),[13],-0.258
same,glycan array binding signal (z-score),[14],1.5
same,glycan array binding signal (z-score),[15],0.398
same,glycan array binding signal (z-score),[16],0.153
same,glycan array binding signal (z-score),[17],-0.242
same,glycan array binding signal (z-score),[18],0.111
same,glycan array binding signal (z-score),Gal(b1-4)GlcNAc6P,-0.018
same,glycan array binding signal (z-score),Gal(b1-6)Gal,0.714
same,glycan array binding signal (z-score),Gal3S(b1-3)GalNAc,-0.335
same,glycan array binding signal (z-score),Gal3S(b1-3)GlcNAc,-0.363
same,glycan array binding signal (z-score),[19],-0.337
same,glycan array binding signal (z-score),Gal3S(b1-4)Glc,-0.273
same,glycan array binding signal (z-score),Gal3S(b1-4)Glc6S,-0.255
same,glycan array binding signal (z-score),Gal3S(b1-4)GlcNAc,-0.3
same,glycan array binding signal (z-score),Gal3S(b1-4)GlcNAc6S,0.607
same,glycan array binding signal (z-score),[20],-0.118
same,glycan array binding signal (z-score),[21],-0.321
same,glycan array binding signal (z-score),[22],0.164
same,glycan array binding signal (z-score),Gal3S4S(b1-4)GlcNAc,-0.166
same,glycan array binding signal (z-score),Gal3S6S(b1-4)GlcNAc,-0.166
same,glycan array binding signal (z-score),Gal3S6S(b1-4)GlcNAc6S,0.642
same,glycan array binding signal (z-score),Gal4S(b1-4)GlcNAc,-0.296
same,glycan array binding signal (z-score),Gal4S6S(b1-4)GlcNAc,-0.26
same,glycan array binding signal (z-score),Gal6P(b1-4)GlcNAc,-0.171
same,glycan array binding signal (z-score),Gal6S(b1-3)GlcNAc,3.06

# Source: the supplement of paper PMC8728848
